Reference: PubChem BioAssay AID1508649 (National Center for Advancing Translational Sciences (NCATS), 2021)
Out of some 43,000 compounds screened, about 830 (1.9%) were called active. The inconclusive results got no clear call from the source; some entries with a clear call stand among them for comparison. The calls were made as follows: active = clear falling dose curves in both reporters; inconclusive = both reporters move, but less clearly or upward; inactive = either reporter flat; the % is the NLuc reporter signal. Potencies of inconclusive entries are left out as doubtful fits.

assay: Cell-based coincidence reporter assay to measure PMP22 gene transcription in S16 Pmp22-F2sN cells - Primary screen; settings: S16 Pmp22-F2sN Schwann cells (luciferase reporters placed in the Pmp22 gene), FLuc/NLuc coincidence luminescence, 24 h; measured here: NLuc reporter readout, at 57.5 µM (top of the series)
How it was run: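 Schwann cells carrying the coincidence reporter were exposed to library compounds for 24 h at 37C, then lysed and read for FLuc and, after quenching, NLuc luminescence on a CCD imager.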
Potency is read from the fitted curve at half-maximal effect; tags tell the direction and shape of the fitted curve.

| Compound | Potency |
| --- | --- |
| COc1cccc(N2CC(NC(=O)c3cc(Cl)ccc3OC)CC2=O)c1 (stereo not given) | inconclusive [phenotype inactive, partial curve] |
| Cc1cccc(NC(=O)Cn2c(=O)n(CCCCCC(=O)NCc3ccc4c(c3)OCO4)c(=O)c3sccc32)c1 | inconclusive [phenotype inactive, single point] |
| CCOC(=O)Cn1c(=O)n(C2CCCCC2)c2nc(-c3c(F)cccc3Cl)nc(C(N)=O)c21 | inconclusive [phenotype inactive, partial curve, poor fit] |
| Cc1ccc(-c2cn3ccc(C)cc3n2)cc1 | inconclusive [phenotype inactive, single point] |
| Cc1ccc(CNC(=O)c2c(C)oc3ncnc(N4CCOCC4)c23)cc1 | inactive |
| Cc1ccc(-n2nc(C)c(C(=O)O)c2-n2cccc2)cc1 | inactive |
| COc1cc(NC(=O)Cn2c(=O)ccc3cc(S(=O)(=O)N4CCCC4)ccc32)cc(OC)c1 | inconclusive [phenotype inactive, partial curve, poor fit] |
| N#Cc1c(-n2ncnc2-c2ccc(F)cc2)sc2c1CCCCC2 | inactive |
| Cc1ccc(NC(=O)Cn2cc(S(=O)(=O)Cc3ccc(F)cc3)c3ccccc32)cc1Cl | inconclusive [phenotype inactive, single point] |
| Cc1cc(C)c2c(CC(=O)N(Cc3ccc(Cl)cc3)Cc3ccco3)coc2c1 | inconclusive [phenotype inactive, single point] |
| Cn1nnnc1SCCCNCc1cccc(OCc2ccc(F)cc2)c1 | inconclusive [phenotype inactive, partial curve] |
| Cc1cccc(N2CCN(C(=O)C3CCN(c4ncnc5c4nc4n5CCCCC4)CC3)CC2C)c1 (stereo not given) | inconclusive [phenotype inactive, single point] |
| CCC(C)NC(=O)CSc1c2c(nc3cc(Cl)ccc13)CCCC2 (stereo not given) | active: 12.1 µM |
| COC(=O)c1ccc(NC(=O)CCc2c(C)nc3c(c(C)nn3C(C)(C)C)c2C)cc1 | inconclusive [phenotype inactive, single point] |
| O=C(Cn1c(=O)n(-c2ccccc2)c(=O)c2ccc(C(=O)NCc3ccc4c(c3)OCO4)cc21)Nc1ccc(Br)cc1 | inconclusive [phenotype inactive, partial curve, poor fit] |
| O=C(c1cnc2c(c1)COc1ccc(Cl)cc1-2)c1ccccc1O | inconclusive [phenotype inactive, single point] |
| Cc1ccc(C)n1-c1nnc(N2CCCC(C(=O)Nc3ccccc3Br)C2)s1 (stereo not given) | active: 16.8 µM |
| CCOc1ccc(S(=O)(=O)NCCc2c(C)[nH]c3c(Cl)cccc23)cc1C | inconclusive [phenotype inactive, single point] |
| COc1ccc(C(=O)Nc2ccc3nc(SCC(=O)N(C)c4ccccc4)sc3c2)cc1 | inconclusive [phenotype inactive, single point] |
| O=C(Nc1nc2ccc(F)cc2s1)c1nc(S(=O)(=O)Cc2ccccc2F)ncc1Cl | active: 9.46 µM |

| Compound | Potency |
| --- | --- |
| CC1=C(C(=O)Nc2cc(Cl)ccc2C)C(c2sccc2C)n2ncnc2N1 (stereo not given) | inactive |
| Cn1nnnc1SCCNCc1cc(Br)ccc1OCc1ccccc1Cl | active: 15.8 µM |
| O=C(CN1C(=O)CCn2nc(-c3ccccc3)cc21)NCc1ccc(Cl)cc1 | inactive |
| Cc1nc2ccccc2n1CCc1nc2c3ccccc3nc(SCc3ccc(C#N)cc3)n2n1 | inconclusive [phenotype inactive, partial curve, poor fit] |
| Cc1ccc(S(=O)(=O)c2nc(S(=O)(=O)c3ccccc3)sc2NCCCOC(C)C)cc1 | inconclusive [phenotype inactive, single point] |
| CCOC(=O)c1c(Nc2ccc(OC)cc2)nnc(-c2ccccc2)c1-c1ccccc1 | inconclusive [phenotype inactive, single point] |
| CCN(CC)c1ccc(NC(=O)CCCN2C(=O)C(c3ccccc3)Oc3cccnc32)c(C)c1 (stereo not given) | active: 14.5 µM |
| CCc1nn2c(=O)c(S(=O)(=O)Nc3ccc(Cl)cc3)c(C)nc2s1 | inconclusive [phenotype inactive, partial curve] |
| CCCCN(CCCNC(=O)c1cc(Nc2ccc(OC)c(OC)c2)nc2ccccc12)c1ccccc1 | inactive |
| COc1ccc(NC(C)=O)cc1NC(=O)CN1CCN(c2ccc(F)cc2)CC1 | inactive |
| O=C(CN1C(=O)COc2ccc(S(=O)(=O)N3CCCCC3)cc21)NCCc1ccc(Cl)cc1 | inconclusive [phenotype inactive, partial curve, poor fit] |
| COc1ccc(/C=C/C(=O)Nc2ccc(Cl)c(Cl)c2)cc1OC | inconclusive [phenotype inactive, single point] |
| Cc1ccc(S(=O)(=O)N(Cc2nc(-c3ccc(Cl)cc3)no2)C2CCCCC2)cc1 | inconclusive [phenotype inactive, single point] |
| CCOC(=O)c1c(C)[nH]c(CCC(=O)Nc2ccc(N(CC)CC)cc2C)c1C | inconclusive [phenotype inactive, partial curve, poor fit] |
| O=C(CCOc1ccccc1)N(Cc1cccnc1)c1nc2c(Cl)cccc2s1 | inconclusive [phenotype inactive, partial curve] |
| Oc1cccc(Nc2nc(-c3ccccc3)nc3ccccc23)c1 | inconclusive [phenotype inactive, single point] |
| CC1CCCCN1C(=O)CSc1nc2ccccc2nc1Cc1ccc(Cl)cc1 (stereo not given) | inconclusive [phenotype inactive, partial curve, poor fit] |
| Cc1c2cnn(CC(=O)O)c(=O)c2c(C)n1Cc1cccc(Cl)c1 | inactive |
| Cc1ccc(NCc2nc3ccccc3n2CCOc2ccccc2C)cc1 | inconclusive [phenotype inactive, single point] |
| Cc1ccc(C)c(CN2C(=O)c3ccccc3S(=O)(=O)c3ccc(C(=O)N4CCN(C)CC4)cc32)c1 | inconclusive [phenotype inactive, single point] |

| Compound | Potency |
| --- | --- |
| Cc1cccc(NC(=O)C2CCCN(c3nnc(-n4c(C)ccc4C)s3)C2)c1C (stereo not given) | active: 16 µM |
| COc1cccc(CN2C(=O)C3(SCC(=O)N3c3cc(C)cc(C)c3)c3ccccc32)c1 (stereo not given) | inconclusive [phenotype inactive, single point] |
| CCOC(=O)C1=C(CN2CCN(c3cc(C)ccc3C)CC2)NC(=O)NC1c1ccccc1 (stereo not given) | inconclusive [phenotype inactive, single point] |
| Cc1ccc2c(c1)c1c(c(=O)n(-c3ccccc3)c(=O)n1CC(=O)NCCC1=CCCCC1)n2C | inconclusive [phenotype inactive, partial curve] |
| C=Cc1ccc(Cn2c(=O)n(CC3CCC(C(=O)NC(C)C)CC3)c(=O)c3sccc32)cc1 (stereo not given) | inconclusive [phenotype inactive, single point] |
| O=C(c1ccc(Cl)cc1)c1cn(Cc2ccccc2)c2cc3c(cc2c1=O)OCCO3 | inactive |
| CCOC(=O)c1ccc(NC(=O)c2c(NCc3cc(OC)ccc3OC)sc3c2CCC3)cc1 | inconclusive [phenotype inactive, single point] |
| Cc1ccc2cc3cc(C(=O)N(C)c4ccccc4C)oc3nc2c1 | inconclusive [phenotype inactive, single point] |
| CCOC(=O)c1ccccc1NC(=O)c1nn(C)c2c1COc1ccccc1-2 | active: 16.8 µM |
| CCCN1CCN(CCCNC(=O)Cn2c(-c3cccs3)cc3cc(Cl)ccc32)CC1 | active: 10.6 µM |
| CC(C)Cn1c(=O)c2ccccc2n2c(CCC(=O)Nc3ccc(F)c(F)c3)nnc12 | inconclusive [phenotype inactive, single point] |
| CCOc1ccc(CNC(=O)C2CCCN(S(=O)(=O)N(CC)c3ccc(OCC)cc3)C2)cc1 (stereo not given) | inconclusive [phenotype inactive, single point] |
| CCOc1ccc(CNC(=O)C2CCN(Cc3cc4ccccc4n3Cc3ccccc3C)CC2)cc1 | inactive |
| O=C(NCc1ccccc1)N1CCc2c(sc3c2CCCC3)C1c1ccccc1 (stereo not given) | active: 7.81 µM |
| COC(=O)c1ccc2c(=O)n(CCCCCC(=O)NC(C)C)c(=O)[nH]c2c1 | inconclusive [phenotype inactive, single point] |
| CC(=O)N1c2ccc(S(=O)(=O)NCC3CCC(C(=O)Nc4ccc(F)cc4)CC3)cc2CC1C (stereo not given) | inconclusive [phenotype inactive, single point] |
| O=C1c2[nH]nc(-c3ccccc3O)c2C(c2ccc(Cl)cc2)N1CCc1ccccc1 (stereo not given) | inconclusive [phenotype inactive, single point] |
| CCOCN(C(=O)Cn1c(CC(C)C)nc2ccccc21)c1c(C)cccc1CC | inconclusive [phenotype inactive, single point] |
| COc1ccccc1N1CCN(S(=O)(=O)c2ccc(-c3ccno3)cc2OC)CC1 | inactive |
| Cc1ccc(NC(=O)c2cc(S(=O)(=O)NC3CCCCCC3)ccc2F)cc1F | inconclusive [phenotype inactive, single point] |
